# Experimental data taken from the supplement of paper PMC4166925.
# ± gives the standard deviation of the averaged measurements. Whole data set: some 33,000 sequences, median “E-score (dimensionless, -0.5 to 0.5)” near -0.046, cut for the highest 2% near 0.36. The list shows a part of the results.
# System: T1, SpTbr T-box DNA-binding domain (GST fusion)
# T1 sequence: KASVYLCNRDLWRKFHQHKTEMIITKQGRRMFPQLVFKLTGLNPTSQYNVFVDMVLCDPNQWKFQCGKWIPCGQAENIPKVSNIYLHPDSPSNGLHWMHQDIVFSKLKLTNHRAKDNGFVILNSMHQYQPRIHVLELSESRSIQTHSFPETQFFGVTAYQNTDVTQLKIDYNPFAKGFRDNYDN
# Test: PBM E-score of 8-mer (E-score (dimensionless, -0.5 to 0.5)); Tbr is Tbrain of the sea star Patiria miniata (Pm) or the sea urchin Strongylocentrotus purpuratus (Sp); higher = stronger binding preference; most listed sequences are background and not binding sites
# Conditions: the construct has about 5 more residues each side
# Outline: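 Expression of GST-fused Tbr T-box DNA-binding domains, each holding the full T-box plus roughly five flanking residues, was carried out in BL21 E. coli at 20 °C, with purification by glutathione affinity chromatography. Universal Agilent arrays made double-stranded by primer extension were incubated with the protein at 200 nM in PBS (pH 7.5), then scanned and quantified. All ungapped 8-mers were scored from probe intensities, and each received an enrichment E-score from the Universal PBM Analysis Suite, averaged over duplicate arrays.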
row,Sequence,PBM E-score of 8-mer
1,CGCCTATA,-0.0217 ± 0.054
2,CCTACACC,0.265 ± 0.013
3,GCCTTAGA,-0.18 ± 0.014
4,CATATGGA,-0.197 ± 0.021
5,ATTGCCCA,-0.057 ± 0.0021
6,CTGAGAAG,-0.0925 ± 0.15
7,GACGGAGA,-0.144 ± 0.017
8,ACTAACCC,0.0812 ± 0.003
9,AGTCATCG,-0.119 ± 0.063
10,TCGTGTAA,0.144 ± 0.031
11,AGATTCCT,-0.101 ± 0.021
12,GCCTATAC,-0.317 ± 0.023
13,CAAGTAAG,-0.188 ± 0.0073
14,CAGCGAGG,0.076 ± 0.011
15,AAACGATT,0.00449 ± 0.012
16,GCATCTGA,-0.167 ± 0.038
17,CCATTTGC,-0.113 ± 0.05
18,ACGAACCA,-0.00981 ± 0.051
19,GGTCACGA,0.27 ± 0.026
20,CGGCAGAA,-0.071 ± 0.034
21,TGGAACCA,-0.168 ± 0.059
22,CAAGGTGA,0.392 ± 0.0089
23,ATAACCGA,-0.206 ± 0.066
24,GCAGTGCC,-0.102 ± 0.027
25,ATATGTCA,-0.0264 ± 0.024

row,Sequence,PBM E-score of 8-mer
1,TCACAAGA,0.175 ± 0.026
2,ATGCGTAC,-0.257 ± 0.069
3,GTTTGCGA,0.0295 ± 0.0092
4,CGCCGAAC,0.074 ± 0.064
5,CGCAGCCA,0.0637 ± 0.032
6,GAGTGAGA,0.346 ± 0.023
7,ATAGCCAT,-0.118 ± 0.018
8,AGTTGGGA,-0.104 ± 0.098
9,CTACCAGA,-0.117 ± 0.026
10,ACGACACA,0.12 ± 0.091
11,ATAGCTCG,-0.0954 ± 0.0088
12,CTGATGAA,0.0658 ± 0.013
13,AACCTGTC,0.248 ± 0.011
14,ATTCGACC,-0.158 ± 0.036
15,CGCGTTCC,-0.0195 ± 0.011
16,TGTAATAA,0.0949 ± 0.1
17,AATCATCA,0.238 ± 0.015
18,CATGGAAA,-0.142 ± 0.06
19,ACAGCAGG,-0.0406 ± 0.07
20,GAGTGGGA,0.12 ± 0.015
21,CCCATTAA,-0.0049 ± 0.0021
22,CCACGCGG,0.0195 ± 0.053
23,GAAGCATA,-0.234 ± 0.011
24,GCTATTTA,-0.00679 ± 0.015
25,ATGACGGA,-0.139 ± 0.0034

row,Sequence,PBM E-score of 8-mer
1,ACGCACTG,-0.0655 ± 0.037
2,AAAAGACA,-0.0444 ± 0.056
3,CTGTTTAC,0.161 ± 0.042
4,ACTCTGCC,0.0713 ± 0.0095
5,ACCGAGAA,0.0904 ± 0.0019
6,CTCCTAAC,-0.0551 ± 0.024
7,AATTCATA,-0.101 ± 0.041
8,CCAGTTAA,-0.0568 ± 0.0054
9,GTTATCCA,0.0147 ± 0.025
10,CCATAGAC,-0.218 ± 0.062
11,GACCGTCC,-0.182 ± 0.071
12,AACACGTA,0.317 ± 0.018
13,AACGTAGG,-0.0674 ± 0.1
14,CCAAACAG,-0.0525 ± 0.0066
15,GAGTAGAC,-0.0936 ± 0.018
16,CAAAGCTC,-0.309 ± 0.054
17,GAGCGCTA,0.205 ± 0.021
18,GCCAGGAA,-0.0317 ± 0.011
19,AGTGACAT,0.277 ± 0.056
20,GCTGACTA,-0.0473 ± 0.02
21,GACGCAAA,-0.0592 ± 0.071
22,TAGCTTAA,-0.103 ± 0.03
23,ACTATGCA,-0.0115 ± 0.083
24,TAATATAA,-0.227 ± 0.032
25,GAAGCGCC,0.0968 ± 0.042

row,Sequence,PBM E-score of 8-mer
1,ATGCGGTC,-0.162 ± 0.054
2,AATGAGTG,-0.0178 ± 0.024
3,CTGATCGC,0.11 ± 0.096
4,AAGAATCC,-0.0435 ± 0.056
5,CCATGCGA,0.142 ± 0.051
6,ATCACTAA,0.0706 ± 0.027
7,CCCGCCCC,-0.0167 ± 0.1
8,AAGGATGC,-0.0902 ± 0.06
9,CCTGCTAG,0.0516 ± 0.05
10,ACATCTCG,0.0203 ± 0.007
11,AGGCATTC,-0.133 ± 0.0052
12,GAGTACCA,0.0178 ± 0.00028
13,AAACACCT,0.442 ± 0.015
14,TATCGTGA,0.192 ± 0.0078
15,AGGTGTAC,0.294 ± 0.0088
16,AGTTCCAT,0.00979 ± 0.0044
17,AAGATGTG,0.2 ± 0.047
18,GGACTACC,-0.277 ± 0.057
19,ACGCCCAC,0.118 ± 0.12
20,GGTTGTGA,0.293 ± 0.029
21,GGCGTCTA,0.0469 ± 0.089
22,TTAGACAA,-0.247 ± 0.036
23,GCGCTGAA,0.0114 ± 0.0097
24,AAGAAAAA,-0.161 ± 0.065
25,ATGACCTG,0.0493 ± 0.034

row,Sequence,PBM E-score of 8-mer
1,ACGCACCG,0.0314 ± 0.086
2,CGTTGCGA,0.288 ± 0.011
3,CTACTGAG,-0.076 ± 0.018
4,TCCAAAGA,-0.0462 ± 0.036
5,CCTCAATA,-0.22 ± 0.037
6,ATTACTGA,-0.0466 ± 0.057
7,ACCTTACT,0.0714 ± 0.031
8,TAAGGCGA,0.137 ± 0.025
9,GATGGATA,-0.14 ± 0.084
10,AATGCGAA,0.0358 ± 0.024
11,GTACGTAA,-0.2 ± 0.087
12,AACAGAGT,-0.0053 ± 0.1
13,CCCAAGAA,-0.101 ± 0.035
14,ATAACTCG,-0.0977 ± 0.0033
15,GTTATAAC,0.117 ± 0.066
16,GCCATAAA,-0.0259 ± 0.034
17,AATCCAAT,0.0559 ± 0.048
18,GGTAAACC,0.116 ± 0.048
19,GTCACGCA,0.279 ± 0.017
20,ACCACCGG,-0.108 ± 0.007
21,ACTCACTC,-0.0615 ± 0.031
22,CAGCAAGC,-0.0921 ± 0.045
23,CACCACTC,0.166 ± 0.049
24,AGCGGCAA,0.0796 ± 0.039
25,GAGCCCCA,-0.124 ± 0.065

row,Sequence,PBM E-score of 8-mer
1,AATTGAAC,-0.0313 ± 0.0045
2,ACCCCTGG,-0.0965 ± 0.0066
3,CCATACAG,-0.253 ± 0.097
4,ACTATAGA,-0.245 ± 0.0039
5,AGCGCGCA,0.112 ± 0.047
6,AATCCCTC,-0.111 ± 0.025
7,CGAGCTTC,0.0382 ± 0.016
8,CCATACTC,0.0687 ± 0.002
9,AAGTTGAA,-0.298 ± 0.067
10,CATTTGCA,0.0389 ± 0.025
11,ATGTCTCG,-0.289 ± 0.017
12,AGAACCTA,-0.249 ± 0.053
13,AGTTCAAG,-0.283 ± 0.036
14,ACCATCTA,-0.177 ± 0.04
15,GCCTATGA,-0.139 ± 0.046
16,CACTGGGC,-0.137 ± 0.012
17,GCTAATCC,-0.0694 ± 0.041
18,CAAGATCG,0.0267 ± 0.034
19,CTGTGGAA,0.061 ± 0.12
20,CTGTAAGC,0.0549 ± 0.007
21,GGTGCATA,0.0222 ± 0.011
22,TTGAGAAA,0.000105 ± 0.093
23,GCGGACCA,0.0506 ± 0.0036
24,ATGTAATA,-0.0427 ± 0.038
25,CTTGAACA,-0.0736 ± 0.0022

row,Sequence,PBM E-score of 8-mer
1,CAAGAGCC,-0.0515 ± 0.0038
2,AAGCCGGA,-0.278 ± 0.011
3,AACGTCGC,0.0261 ± 0.003
4,TATCTGCA,-0.0527 ± 0.061
5,ACCTCCCG,0.0918 ± 0.056
6,AATCCGGT,-0.114 ± 0.0073
7,CAGGGGAC,-0.16214 ± 3.5e-05
8,CGATGGCG,0.184 ± 0.045
9,TACAAGGA,-0.158 ± 0.065
10,GGCTCCTA,-0.1152 ± 0.0011
11,AAATTCTT,-0.118 ± 0.13
12,CTTCACCC,0.123 ± 0.04
13,GAAACCAC,-0.0345 ± 0.067
14,ACGTGCAA,0.141 ± 0.038
15,GTTACGAA,0.00639 ± 0.00059
16,CAGCCCGC,-0.128 ± 0.043
17,GACTAGAC,-0.175 ± 0.011
18,CAAACACG,0.187 ± 0.02
19,TGCGCTAA,0.191 ± 0.035
20,GCCGTTCC,-0.096 ± 0.054
21,ATTGGCAG,-0.0228 ± 0.077
22,TATCTTGA,-0.194 ± 0.023
